In patent US20140044674A1 (Hoffmann-La Roche, published 2014):

T1: IL-10R on freshly isolated human blood monocytes (human, UniProt Q13651 22-578; Q08334 20-325)
T1 sequence (looked up) 1: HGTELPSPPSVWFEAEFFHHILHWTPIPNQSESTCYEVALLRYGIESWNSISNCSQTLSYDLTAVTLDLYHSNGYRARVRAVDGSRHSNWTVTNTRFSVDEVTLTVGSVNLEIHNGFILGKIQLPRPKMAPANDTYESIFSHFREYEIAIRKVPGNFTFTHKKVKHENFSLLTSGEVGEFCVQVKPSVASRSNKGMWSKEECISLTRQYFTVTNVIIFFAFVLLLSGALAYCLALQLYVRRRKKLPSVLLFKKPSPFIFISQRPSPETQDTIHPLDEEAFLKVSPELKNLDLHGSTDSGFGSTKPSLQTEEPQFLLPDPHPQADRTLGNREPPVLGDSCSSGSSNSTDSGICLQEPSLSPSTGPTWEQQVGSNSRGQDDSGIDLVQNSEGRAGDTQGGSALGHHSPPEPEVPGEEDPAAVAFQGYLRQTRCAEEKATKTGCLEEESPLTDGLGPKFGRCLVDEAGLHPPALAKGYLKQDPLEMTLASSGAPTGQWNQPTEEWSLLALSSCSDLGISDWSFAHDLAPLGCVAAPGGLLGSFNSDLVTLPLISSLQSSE
T1 sequence (looked up) 2: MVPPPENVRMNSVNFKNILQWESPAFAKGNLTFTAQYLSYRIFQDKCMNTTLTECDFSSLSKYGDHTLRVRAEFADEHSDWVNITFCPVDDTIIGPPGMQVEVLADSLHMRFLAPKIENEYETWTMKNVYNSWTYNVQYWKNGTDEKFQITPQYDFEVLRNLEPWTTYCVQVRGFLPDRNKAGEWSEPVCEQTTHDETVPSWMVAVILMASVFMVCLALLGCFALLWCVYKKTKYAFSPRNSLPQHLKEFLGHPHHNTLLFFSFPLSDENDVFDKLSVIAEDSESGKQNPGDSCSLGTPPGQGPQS

B1: 4G8 IgG-IL-10 (other)
heavy: [about 100 residues omitted here][about 120 residues omitted here][human IgG1 Fc with changes omitted here]GGGGSGGGGSGGGGSGGGGSSPGQGTQSENSCTHFPGNLPNMLRDLRDAFSRVKTFFQMKDQLDNLLLKESLLEDFKGYLGCQALSEMIQFYLEEVMPQAENQDPDIKAHVNSLGENLKTLRLRLRRCHRFLPCENKSKAVEQVKNAFNKLQEKGIYKAMSEFDIFINYIEAYMTMKIRN
light: EIVLTQSPGTLSLSPGERATLSCRASQSVSRSYLAWYQQKPGQAPRLLIIGASTRATGIPDRFSGSGSGTDFTLTISRLEPEDFAVYYCQQGQVIPPTFGQGTKVEIKRTVAAPSVFIFPPSDEQLKSGTASVVCLLNNFYPREAKVQWKVDNALQSGNSQESVTEQDSKDSTYSLSSTLTLSKADYEKHKVYACEVTHQGLSSPVTKSFNRGEC
notes: Fusion of anti-FAP IgG1 (clone 4G8) and IL-10; the two IL-10 monomers dimerize within the molecule; also called IgG-IL-10 (clone 4G8)
B2: 4G8 Fab-IL-10 (other)
heavy: [about 100 residues omitted here]GWLGNFDYWGQGTLVTVSSASTKGPSVFPLAPSSKSTSGGTAALGCLVKDYFPEPVTVSWNSGALTSGVHTFPAVLQSSGLYSLSSVVTVPSSSLGTQTYICNVNHKPSNTKVDKKVEPKSCDGGGGSGGGGSGGGGSSPGQGTQSENSCTHFPGNLPNMLRDLRDAFSRVKTFFQMKDQLDNLLLKESLLEDFKGYLGCQALSEMIQFYLEEVMPQAENQDPDIKAHVNSLGENLKTLRLRLRRCHRFLPCENKSKAVEQVKNAFNKLQEKGIYKAMSEFDIFINYIEAYMTMKIRN
light: B1 light
notes: also called Fab-IL-10 (clone 4G8)

Tests used:
[1] = molecular target: T2, recombinant human FAP coated on cell culture plates (human, UniProt Q12884 26-760, limits assumed); assay: cell-based or functional assay
His-tagged mouse FAP ECD [2] = molecular target: T3, His-tagged mouse FAP ECD (mouse, UniProt P97321 27-761); assay: SPR ProteOn XPR36, 25 C; His-tagged FAP captured by anti-penta-His IgG, construct as analyte; off-rate could not be fitted, estimate used
T3 construct: also called mu FAP; murine FAP
Procedure: (§1) To determine the affinities to FAP, the target protein was captured via its H6-tag by a covalently immobilized anti-H6 antibody (FIG. 9A). Briefly, anti-penta His IgG (Qiagen #34660, mouse monoclonal antibody) was immobilized at high levels (up to ˜5.000 RU) at 30 μ/min onto separate vertical channels of a GLM chip by simultaneously activating all channels for 5 min with a freshly prepared mixture of 1-ethyl-3-(3-dimethylaminopropyl)-carboiimide (EDC) and N-hydroxysuccinimide (sNHS), subsequently injecting 15 μg/ml anti-penta His IgG in 10 mM sodium acetate buffer pH 4.5 for 180 sec. Channels were blocked using a 5-min injection of ethanolamine. H6-tagged FAP from different species (see SEQ ID NOs 81, 83 and 85) was captured from a 5 μg/ml dilution in running buffer along the vertical channels for 60 s at 30 μl/min to achieve ligand densities between ˜250 and 600 RU. In a one-shot kinetic assay set-up (OSK), antibody-IL-10 fusion constructs were injected as analytes along the horizontal channels in a five-fold dilution series ranging from 50 to 0.08 nM at 100 μl/min. Association phase was recorded for 180 s, dissociation phase for 600 s. […] Running buffer (PBST) was injected along the sixth channel to provide an “in-line” blank for referencing. Association rates (kₒₙ) and dissociation rates (koff) were calculated using a simple 1:1 Langmuir binding model (ProteOn Manager software version 2.1) by simultaneously fitting the association and dissociation sensorgrams. The equilibrium dissociation constant (KD) was calculated as the ratio koff/kₒₙ.

[3] = molecular target: T2, recombinant human FAP coated on cell …; assay: cell-based or functional assay; remark: listed apart in the source
His-tagged mouse FAP ECD [4] = molecular target: T3, His-tagged mouse FAP ECD; assay: SPR ProteOn XPR36, 25 C; His-tagged FAP captured by anti-penta-His IgG, construct as analyte
Procedure: as §1

[5] = molecular target: T4, His-tagged cynomolgus FAP ECD (cynomolgus, UniProt Q12884 27-760 (human entry)); assay: as above
T4 construct: also called cyno FAP
Procedure: as §1

His-tagged human FAP ECD = molecular target: T5, His-tagged human FAP ECD (human, UniProt Q12884 27-760); assay: as above
T5 construct: also called hu FAP
Procedure: as §1

[6] = molecular target: T2, recombinant human FAP coated on cell …; assay: cell-based or functional assay; remark: listed apart in the source
[7] = molecular target: T2, recombinant human FAP coated on cell …; assay: cell-based or functional assay; remark: listed apart in the source
His-tagged mouse FAP ECD [8] = molecular target: T3, His-tagged mouse FAP ECD; assay: SPR ProteOn XPR36, 25 C; His-tagged FAP captured by anti-penta-His IgG, construct as analyte; KD calculated with the estimated koff
Procedure: as §1

[9] = molecular target: T2, recombinant human FAP coated on cell …; assay: cell-based or functional assay; remark: listed apart in the source
[10] = molecular target: T2, recombinant human FAP coated on cell …; assay: cell-based or functional assay; remark: listed apart in the source
[11] = molecular target: T2, recombinant human FAP coated on cell …; assay: cell-based or functional assay; remark: listed apart in the source
[12] = molecular target: T2, recombinant human FAP coated on cell …; assay: cell-based or functional assay; remark: listed apart in the source
[13] = molecular target: T2, recombinant human FAP coated on cell …; assay: cell-based or functional assay; remark: listed apart in the source
[14] = molecular target: T2, recombinant human FAP coated on cell …; assay: cell-based or functional assay; remark: listed apart in the source
[15] = molecular target: T2, recombinant human FAP coated on cell …; assay: cell-based or functional assay; remark: listed apart in the source
[16] = molecular target: T1, IL-10R on freshly isolated human blood …; assay: cell-based or functional assay

Binder	hIL-6 EC50 [nM], construct immobilized on FAP coated at 1 µg/ml, monocytes donor 5 [1]	hIL-6 EC50 [nM], construct immobilized on FAP coated at 5 µg/ml, monocytes donor 5 [1]	koff (His-tagged mouse FAP ECD [2])	EC50, suppression of LPS-induced hIL-1β production by monocytes, set-up (b) (immobilized), donor 3 [3]	EC50, suppression of LPS-induced hIL-6 production by monocytes, set-up (b) (immobilized), donor 3 [3]	EC50, suppression of LPS-induced hTNFα production by monocytes, set-up (b) (immobilized), donor 3 [3]	kon (His-tagged mouse FAP ECD [4])	Kd [5]	koff [5]	kon [5]	Kd (His-tagged human FAP ECD)	koff (His-tagged human FAP ECD)	kon (His-tagged human FAP ECD)	EC50, suppression of hIL-1β production by monocytes, set-up (b) (immobilized), donor 1 [7]	EC50, suppression of hTNFα production by monocytes, set-up (b) (immobilized), donor 1 [7]	Kd (His-tagged mouse FAP ECD [8])	EC50, suppression of hIL-1β production by monocytes, set-up (b) (immobilized), donor 2 [9]	EC50, suppression of hIL-6 production by monocytes, set-up (b) (immobilized), donor 2 [9]	EC50, suppression of hTNFα production by monocytes, set-up (b) (immobilized), donor 2 [9]	EC50, suppression of hIL-1β production by monocytes, set-up (b) (immobilized), donor 3 [10]	other results
B1	0.002 nM	0.0004 nM	~1e-05 s⁻¹	0.2 pM	1 pM	0.2 pM	1.55e+06 M⁻¹ s⁻¹	29 pM	0.000106 s⁻¹	3.66e+06 M⁻¹ s⁻¹	40.7 pM	0.000124 s⁻¹	3.04e+06 M⁻¹ s⁻¹	1 pM	1 pM	6.45 pM	0.2 pM	1 pM	0.2 pM	0.2 pM	hIL-6 EC50 [nM], construct immobilized on FAP coated at 0.25 µg/ml, monocytes donor 5 [1]: 0.019 nM; hIL-6 EC50 [nM], construct immobilized on FAP coated at 0.5 µg/ml, monocytes donor 5 [1]: 0.001 nM; EC50, suppression of hIL-6 production by monocytes, set-up (b) (immobilized) [6]: 4 pM; EC50, suppression of hIL-6 production by monocytes, set-up (b) (immobilized), donor 3 [10]: 1 pM; EC50, suppression of hTNFα production by monocytes, set-up (b) (immobilized), donor 3 [10]: 0.2 pM; EC50, suppression of LPS-induced hIL-1β production by monocytes, set-up (b) (immobilized), donor 2 [11]: 0.2 pM; EC50, suppression of LPS-induced hIL-6 production by monocytes, set-up (b) (immobilized), donor 2 [11]: 1 pM; EC50, suppression of LPS-induced hTNFα production by monocytes, set-up (b) (immobilized), donor 2 [11]: 0.2 pM; EC50 [nM] IL-6, suppression of IL-6 production by monocytes, Set-up (b), donor 7 [12]: 0.009 nM; EC50 [nM] IL-6, suppression of IL-6 production by monocytes, set-up (b) (immobilized), donor 4 [13]: 0.002 nM; EC50, suppression of LPS-induced hIL-1β production by monocytes, set-up (b) (immobilized), donor 1 [14]: 1 pM; EC50, suppression of LPS-induced hIL-6 production by monocytes, set-up (b) (immobilized), donor 1 [14]: 2 pM; EC50, suppression of LPS-induced hTNFα production by monocytes, set-up (b) (immobilized), donor 1 [14]: 1 pM
B2	0.029 nM	0.016 nM	~1e-05 s⁻¹	36 pM	57 pM	25 pM	1.77e+06 M⁻¹ s⁻¹	36.4 pM	0.000129 s⁻¹	3.55e+06 M⁻¹ s⁻¹	52.1 pM	0.000169 s⁻¹	3.24e+06 M⁻¹ s⁻¹	85 pM	17 pM	5.65 pM	23 pM	60 pM	17 pM	36 pM	EC50, suppression of hIL-1β production by monocytes, set-up (b) (immobilized) [15]: 3 pM; EC50, suppression of hIL-6 production by monocytes, set-up (b) (immobilized) [15]: 20 pM; EC50, suppression of hTNFα production by monocytes, set-up (b) (immobilized) [15]: 1 pM; EC50, suppression of hIL-6 production by monocytes, set-up (b) (immobilized), donor 1 [7]: 103 pM; EC50, suppression of hIL-6 production by monocytes, set-up (b) (immobilized), donor 3 [10]: 57 pM; EC50, suppression of hTNFα production by monocytes, set-up (b) (immobilized), donor 3 [10]: 25 pM; EC50 [nM] pSTAT3 induction, primary monocytes, Donor 1 [16]: 0.154 nM; EC50 [nM] pSTAT3 induction, primary monocytes, Donor 2 [16]: 0.194 nM; EC50 [nM] pSTAT3 induction, primary monocytes, Donor 3 [16]: 0.087 nM; EC50, suppression of LPS-induced hIL-1β production by monocytes, set-up (b) (immobilized), donor 2 [11]: 23 pM; EC50, suppression of LPS-induced hIL-6 production by monocytes, set-up (b) (immobilized), donor 2 [11]: 60 pM; EC50, suppression of LPS-induced hTNFα production by monocytes, set-up (b) (immobilized), donor 2 [11]: 17 pM; EC50 [nM] IL-6, suppression of IL-6 production by monocytes, Set-up (b), donor 7 [12]: 0.065 nM; EC50 [nM] IL-6, suppression of IL-6 production by monocytes, set-up (b) (immobilized), donor 4 [13]: 0.081 nM; EC50, suppression of LPS-induced hIL-1β production by monocytes, set-up (b) (immobilized), donor 1 [14]: 85 pM; EC50, suppression of LPS-induced hIL-6 production by monocytes, set-up (b) (immobilized), donor 1 [14]: 103 pM; EC50, suppression of LPS-induced hTNFα production by monocytes, set-up (b) (immobilized), donor 1 [14]: 17 pM

Like-named read-outs stand apart in the source and are kept apart here.
